Reference: the supplement of paper PMC11417369
± gives the standard deviation of the averaged measurements. Some of the results follow.

These sequences were tested on PfAP2-G AP2 domain (GST-tagged) (assay: gcPBM binding intensity (ln(normalized median fluorescence intensity)); higher = stronger DNA binding).
How it was run: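 Binding intensity is the highest Masliner-normalised natural-log median intensity over replicate spots in either probe orientation. To obtain it, GST-tagged P. falciparum DNA-binding domains made in E. coli were incubated for 1 h on an Agilent 4 × 180k array of primer-extended double-stranded 36-bp intergenic genomic probes plus negative controls. Detection used Alexa488 anti-GST antibody with scanning at 488 nm.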

| Sequence | gcPBM binding intensity (ln) |
| --- | --- |
| TATAAATAAAGACTTTTTTCTAACTTTTTTTTGTAT [CACACA_negctrl_site1015] | 9.64 ± 0.32 |
| TAAGTATATTTCTGCACACAAAAAAAAAAACCAAAA [CACACA_site4056] | 10.3 ± 0.3 |
| AAAATTTAATATGAATGTACATAAAAAAAAAAAAAA [XGTACX_site6719] | 11 ± 0.89 |
| ATTTAGTATTCGAAACGTACACATATATATATATAT [XGTACX_site3910] | 11.4 ± 1.1 |
| ATATATAATATAATATGTACATATAATCAATCCTGT [XGTACX_site8694] | 11.2 ± 0.73 |
| TGTAATCTGGAGAAGAGTACACAGTATCTGGTAGCT [XGTACX_site4935] | 11.3 ± 0.83 |
| ATATTTTTTTTCTTCACACACATGAGTTATAAATAA [CACACA_site7498] | 10.2 ± 0.24 |
| AATGAAACAATACCCAGTAAAAAAAAAAAATAAATA [TGCATGCA_negctrl_site205] | 9.93 ± 0.36 |
| ATTATAATTTTGTAAAGTACATATTATTATATATTA [XGTACX_site7191] | 11 ± 0.73 |
| AAGATAATTACGCACACACACACACGCCCACAACTA [CACACA_site7255] | 10.8 ± 0.49 |
| TATTTATATAATCCTATAATATTACTACTATCTTTA [GTGCAC_negctrl_site342] | 9.77 ± 0.014 |
| TAATATTTATATAATTGTACTTTGTTTGTAAATCCA [XGTACX_site7292] | 11 ± 0.69 |
| AAGGTAAAATATAAGTGTACTTTTTCTTAATCTTCG [XGTACX_site514] | 11.5 ± 0.89 |
| ACAGTTTGTCTGAGTAGTACATAAATACTTGAAAGG [XGTACX_site7792] | 11.4 ± 0.79 |
| AGAAGGATATTATGAAGTACACATATTGTATATGGT [XGTACX_site7503] | 11.5 ± 0.87 |
| TAGTAAAATGGAACACGTACATATATCTATGTATAA [XGTACX_site6103] | 11.4 ± 0.81 |
| CATATAAGACAAAAGGTGCAATTTTAATGCTTTTAT [GTGCAC_site9432] | 9.77 ± 0.3 |
| AACCCTTTTGATTTTTCTTTTTTTTTTTTTTTAAAT [CACACA_negctrl_site1667] | 9.49 ± 0.37 |
| TTTTTAAAAAAAAATAGAGAGTCAAAGTATGTGGCG [CACACA_negctrl_site194] | 10.2 ± 0.14 |
| TTTCTCTTTTTTTGGGGTACAACCAATCCTATAATA [XGTACX_site297] | 11.6 ± 0.87 |
| ATACATATATATATATGTACATATATTTATATTTAT [XGTACX_site3155] | 11.1 ± 0.7 |
| TAATTCAAACGTGTATGTATATTACTCGAAGAAATA [CACACA_negctrl_site1779] | 9.96 ± 0.16 |

| Sequence | gcPBM binding intensity (ln) |
| --- | --- |
| TTTCAAGGATTTAATTTATGGAAACCTTCTTCATTT [GTGCAC_negctrl_site504] | 9.87 ± 0.11 |
| CCATATATAATGACATGTACTCAAAAAAAAAAAAAA [XGTACX_site685] | 11.3 ± 1 |
| TAGAAAAAAAAATACATACACACAATATATTTATTT [CACACA_site3123] | 9.66 ± 0.26 |
| AAGTTCAAAATAAATGGTACAGAAGTATATATATCA [XGTACX_site174] | 10.9 ± 0.46 |
| TAAAAAAAGAGATATTGTACACAAAAAAATTTTACT [XGTACX_site1342] | 11.4 ± 0.76 |
| AAAATCTAGGTATTTATACACACTAATATAATATAC [CACACA_site8108] | 10.2 ± 0.28 |
| TATATATTTGTGAAAATATTAAAATAAATAAATAAA [CACACA_negctrl_site295] | 9.76 ± 0.042 |
| GTACCAACAGCACTACTTCTCGCCATTTTCTTGTAG [XGTACX_negctrl_site97] | 10.5 ± 0.28 |
| GAGAGGATAGTTCACAGTACCCAGTAACTCTACGGA [XGTACX_site4876] | 10.7 ± 0.48 |
| ATAAATATAACATATTGTACCCTTAAAAAGGAACAA [XGTACX_site352] | 11.7 ± 0.96 |
| AAATGTATAATTTTTTAATACACTTATTTAAAATAA [CACACA_negctrl_site797] | 10.1 ± 0.2 |
| TCTTACACTAATAAATGTACATACAAAAAATCTATT [XGTACX_site1379] | 11.2 ± 0.76 |
| TACCCACTAAAATACACACACACACCCACATATATA [CACACA_site6141] | 10.3 ± 0.33 |
| AATTTGAATATTTGATGTACAAAGTTTTTTAATGTT [XGTACX_site3249] | 10.9 ± 0.63 |
| ATATGAATGATCGTACGTACTTACATATTTATAAAG [XGTACX_site8041] | 11.5 ± 0.93 |
| CAGAATACATACATTACACACAAATTTAAGTATATA [CACACA_site1781] | 9.96 ± 0.16 |
| CTCAAATAACTTTTTACACACATTATTTGAAATAAG [CACACA_site6722] | 10.1 ± 0.18 |
| ACAAATAAAAAAATTACACACATATAAAATATAGAT [CACACA_site6756] | 9.925 ± 0.021 |
| TATGAGAACAAACATTGTACAATAAAAAGTAGATAT [XGTACX_site920] | 11.2 ± 0.35 |
| AGGAAAATAATTAAAGCATGCTCATTATGAAATATA [TGCATGCA_site855] | 9.64 ± 0.24 |
| AATACATGAACTTAAAGTACTAAAAAAAAAATAATA [XGTACX_site1956] | 11 ± 0.52 |
| TCACATATTATCTTTACACACTATATATAAGTTTTA [CACACA_site2790] | 9.925 ± 0.007 |
